# Results reported in US20250034756A1 (Chugai, published 2025).
# Numbering of substitutions follows the chain as printed.
# B1: EEIVHC002/EEIVL (antibody, human IgG1, kappa)
# heavy: QMQLVESGGGVVQPGRSLRLSCTASGFTFSNNGMHWVRQAPGKGLEWVAVIWFDGMNKFYVDSVKGRFTISRDNSKNTLYLEMNSLRAEDTAIYYCAREGDGSGIYYYYGMDVWGQGTTVTVGLSGRSDNHGSS[human IgG1 constant region not given here]
# light: [about 100 residues not given here][about 120 residues not given here]
# notes: IgG1
# B2: EEIVHC003/EEIVL (antibody, human IgG1, kappa)
# heavy: QMQLVESGGGVVQPGRSLRLSCTASGFTFSNNGMHWVRQAPGKGLEWVAVIWFDGMNKFYVDSVKGRFTISRDNSKNTLYLEMNSLRAEDTAIYYCAREGDGSGIYYYYGMDVWGQGTTVTVSGLSGRSDNHGSSS[human IgG1 constant region not given here]
# light: [about 100 residues not given here][about 120 residues not given here]
# notes: IgG1
# B3: EEIVHC004/EEIVL (antibody, human IgG1, kappa)
# heavy: QMQLVESGGGVVQPGRSLRLSCTASGFTFSNNGMHWVRQAPGKGLEWVAVIWFDGMNKFYVDSVKGRFTISRDNSKNTLYLEMNSLRAEDTAIYYCAREGDGSGIYYYYGMDVWGQGTTVTVGSGLSGRSDNHGSSSS[human IgG1 constant region not given here]
# light: [about 100 residues not given here][about 120 residues not given here]
# notes: IgG1
# B4: EEIVHC005/EEIVL (antibody, human IgG1, kappa)
# heavy: QMQLVESGGGVVQPGRSLRLSCTASGFTFSNNGMHWVRQAPGKGLEWVAVIWFDGMNKFYVDSVKGRFTISRDNSKNTLYLEMNSLRAEDTAIYYCAREGDGSGIYYYYGMDVWGQGTTVTVGGSGLSGRSDNHGSSGSS[human IgG1 constant region not given here]
# light: [about 100 residues not given here][about 120 residues not given here]
# notes: IgG1
# B5: EEIVHE/EEIVL (antibody, human IgG1, kappa)
# heavy: QMQLVESGGGVVQPGRSLRLSCTASGFTFSNNGMHWVRQAPGKGLEWVAVIWFDGMNKFYVDSVKGRFTISRDNSKNTLYLEMNSLRAEDTAIYYCAREGDGSGIYYYYGMDVWGQGTTVTVSSALSGRSDNHSTKGPSVFPLAPSSKSTSGGTAALGCLVKDYFPEPVTVSWNSGALTSGVHTFPAVLQSSGLYSLSSVVTVPSSSLGTQTYICNVNHKPSNTKVDKKV[human IgG1 Fc not given here]
# light: [about 100 residues not given here][about 120 residues not given here]
# notes: IgG1
# B6: EEIVHF/EEIVL (antibody, human IgG1, kappa)
# heavy: B5 heavy with L126S, S127T, G128L, R129S, S130G, D131R, N132S, H133D, S134N, T135H
# light: [about 100 residues not given here][about 120 residues not given here]
# notes: IgG1
# B7: EEIVHC/EEIVL (antibody, human IgG1, kappa)
# heavy: QMQLVESGGGVVQPGRSLRLSCTASGFTFSNNGMHWVRQAPGKGLEWVAVIWFDGMNKFYVDSVKGRFTISRDNSKNTLYLEMNSLRAEDTAIYYCAREGDGSGIYYYYGMDVWGQGTTVTVLSGRSDNHSS[human IgG1 constant region not given here]
# light: [about 100 residues not given here][about 120 residues not given here]
# notes: IgG1
# B8: EEIVHB/EEIVL (antibody, human IgG1, kappa)
# heavy: B5 heavy with L126S, S127L, G128S, R129G, S130R, D131S, N132D, H133N, S134H
# light: [about 100 residues not given here][about 120 residues not given here]
# notes: IgG1
# B9: EEIVHD/EEIVL (antibody, human IgG1, kappa)
# heavy: B7 heavy with L123S, S124L, G125S, R126G, S127R, D128S, N129D, H130N, S131H
# light: [about 100 residues not given here][about 120 residues not given here]
# notes: IgG1
# B10: EEIVHG/EEIVL (antibody, human IgG1, kappa)
# heavy: B5 heavy with L126S, S127T, G128K, R129L, D131G, N132R, H133S, S134D, T135N, K136H
# light: [about 100 residues not given here][about 120 residues not given here]
# notes: IgG1
# B11: EEIVHBG/EEIVL (antibody, human IgG1, kappa)
# heavy: B5 heavy with L126S, S127L, G128S, R129G, S130R, D131S, N132D, H133N, S134H, T135G
# light: [about 100 residues not given here][about 120 residues not given here]
# notes: IgG1
# B12: EEIVHEG/EEIVL (antibody, human IgG1, kappa)
# heavy: B5 heavy with S134G
# light: [about 100 residues not given here][about 120 residues not given here]
# notes: IgG1
# B13: EEIVHA/EEIVL (antibody, human IgG1, kappa)
# heavy: B7 heavy with L123S, G125L, R126S, S127G, D128R, N129S, H130D, S131N, S132H
# light: [about 100 residues not given here][about 120 residues not given here]
# notes: IgG1
# B14: EEIVH/EEIVLE (antibody, human IgG1, kappa)
# heavy: QMQLVESGGGVVQPGRSLRLSCTASGFTFSNNGMHWVRQAPGKGLEWVAVIWFDGMNKFYVDSVKGRFTISRDNSKNTLYLEMNSLRAEDTAIYYCAREGDGSGIYYYYGMDVWGQGTTVTVSS[human IgG1 constant region not given here]
# light: [about 100 residues not given here]TFGPGTKVDIKRLSGRSDNHTVAAPSVFIFPPSDEQLKSGTASVVCLLNNFYPREAKVQWKVDNALQSGNSQESVTEQDSKDSTYSLSSTLTLSKADYEKHKVYACEVTHQGLSSPVTKSFNRGEC
# notes: IgG1
# B15: EEIVH/EEIVLD (antibody, human IgG1, kappa)
# heavy: B14 heavy
# light: [about 100 residues not given here]TFGPGTKVDILSGRSDNHKRTVAAPSVFIFPPSDEQLKSGTASVVCLLNNFYPREAKVQWKVDNALQSGNSQESVTEQDSKDSTYSLSSTLTLSKADYEKHKVYACEVTHQGLSSPVTKSFNRGEC
# notes: IgG1
# B16: EEIVH/EEIVLEG (antibody, human IgG1)
# heavy: B14 heavy
# light: [about 100 residues not given here]TFGPGTKVDIKRLSGRSDNHGVAAPSVFIFPPSDEQLKSGTASVVCLLNNFYPREAKVQWKVDNALQSGNSQESVTEQDSKDSTYSLSSTLTLSKADYEKHKVYACEVTHQGLSSPVTKSFNRGEC
# notes: IgG1
# B17: EEIVH/EEIVLF (antibody, human IgG1)
# heavy: B14 heavy
# light: [about 100 residues not given here]TFGPGTKVDIKRTVLSGRSDNHAAPSVFIFPPSDEQLKSGTASVVCLLNNFYPREAKVQWKVDNALQSGNSQESVTEQDSKDSTYSLSSTLTLSKADYEKHKVYACEVTHQGLSSPVTKSFNRGEC
# notes: IgG1
# B18: EEIVH/EEIVLA (antibody, human IgG1, kappa)
# heavy: B14 heavy
# light: [about 100 residues not given here]TFGPGTKVDIKLSGRSDNHRTVAAPSVFIFPPSDEQLKSGTASVVCLLNNFYPREAKVQWKVDNALQSGNSQESVTEQDSKDSTYSLSSTLTLSKADYEKHKVYACEVTHQGLSSPVTKSFNRGEC
# notes: IgG1
# B19: EEIVH/EEIVLB (antibody, human IgG1)
# heavy: B14 heavy
# light: [about 100 residues not given here]TFGPGTKVDIKRTLSGRSDNHVAAPSVFIFPPSDEQLKSGTASVVCLLNNFYPREAKVQWKVDNALQSGNSQESVTEQDSKDSTYSLSSTLTLSKADYEKHKVYACEVTHQGLSSPVTKSFNRGEC
# notes: IgG1
# B20: EEIVH/EEIVLG (antibody, human IgG1)
# heavy: B14 heavy
# light: [about 100 residues not given here]TFGPGTKVDIKRTVALSGRSDNHAPSVFIFPPSDEQLKSGTASVVCLLNNFYPREAKVQWKVDNALQSGNSQESVTEQDSKDSTYSLSSTLTLSKADYEKHKVYACEVTHQGLSSPVTKSFNRGEC
# notes: IgG1
# B21: EEIVH/EEIVLC (antibody, human IgG1, kappa)
# heavy: B14 heavy
# light: [about 100 residues not given here]TFGPGTKVDLSGRSDNHIKRTVAAPSVFIFPPSDEQLKSGTASVVCLLNNFYPREAKVQWKVDNALQSGNSQESVTEQDSKDSTYSLSSTLTLSKADYEKHKVYACEVTHQGLSSPVTKSFNRGEC
# notes: IgG1
# Target: T1, human CXCL10 (human, UniProt P02778 22-98)
# T1 construct: Two bought lots of the same protein are treated as one molecule; also called hCXCL10; IP-10
# Experiment: Biacore SPR, antibody captured on protein A (CM3 chip), human CXCL10 as analyte at 6.25, 3.125, 1.563, 0.781 nM, 300 mM NaCl, 25 C
row,binding result,Binder
1,binds,B1
2,binds,B2
3,binds,B3
4,binds,B4

# Target: T1, human CXCL10
# Experiment: Biacore SPR, antibody captured on protein A (CM3 chip), human CXCL10 as analyte at 3.125, 1.563, 0.781 nM, 25 C
row,binding result,Binder
1,binds,B5
2,binds,B6
3,binds,B7
4,binds,B8
5,binds,B9
6,binds,B10
7,binds,B11
8,binds,B12
9,binds,B13

# Target: T1, human CXCL10
# Experiment: as above
# Remark: another data set of the same source
row,binding result,Binder
1,binds,B14
2,binds,B15
3,binds,B16
4,binds,B17
5,binds,B18
6,binds,B19
7,binds,B20
8,binds,B21
